# This is one part of the list.
# B1: PhoQ; a variant is named by its letters at X, in order, P23837 (parent)
# chain: MKKLLRLFFPLSLRVRFLLATAAVVLVLSLAYGMVALIGYSVSFDKTTFRLLRGESNLFYTLAKWENNKLHVELPENIDKQSPTMTLIYDENGQLLWAQRDVPWLMKMIQPDWLKSNGFHEIEADVNDTSLLLSGDHSIQQQLQEVREDDDDAEMTHSVAVNVYPATSRMPKLTIVVVDTIPVELKSSYMVWSWFIYVLSANLLLVIPLLWVAAWWSLRPIEALAKEVRELEEHNRELLNPATTRELTSLVRNLNRLLKSERERYDKYRTTLTDLTHSLKTPLXXLQXXLRSLRSEKMSVSDAEPVMLEQISRISQQIGYYLHRASMRGGTLLSRELHPVAPLLDNLTSALNKVYQRKGVNISLDISPEISFVGEQNDFVEVMGNVLDNACKYCLEFVEISARQTDEHLYIVVEDDGPGIPLSKREVIFDRGQRVDTLRPGQGVGLAVAREITEQYEGKIVAGESMLGGARMEVIFGRQHSAPKDE
# Variants of: B1
# Test: enrichment ratio after two sorts for PhoP signalling (ratio (wild type AVST 3.29)); higher = more functional
# Conditions: with PhoP (E. coli)
row,Variant,enrichment ratio
1,LIII,≤ 0.25
2,RPWY,≤ 0.25
3,DWIN,≤ 0.25
4,GENG,≤ 0.25
5,YYVA,≤ 0.25
6,DQAS,≤ 0.25
7,ITYS,≤ 0.25
8,FAKV,0.3
9,GDGI,≤ 0.25
10,RVVA,≤ 0.25
11,MILT,≤ 0.25
12,GDQK,≤ 0.25
13,LKNK,≤ 0.25
14,TLKI,≤ 0.25
15,SENP,≤ 0.25
16,GIYF,≤ 0.25
17,HDKY,≤ 0.25
18,SFND,≤ 0.25
19,IGAY,≤ 0.25
20,MKST,≤ 0.25
21,TKFC,≤ 0.25
22,YEWA,≤ 0.25
23,MTRI,≤ 0.25
24,KCLY,≤ 0.25
25,RAFP,≤ 0.25
26,QEWI,4.11

row,Variant,enrichment ratio
1,DDSH,≤ 0.25
2,CSVL,≤ 0.25
3,PTDG,≤ 0.25
4,PEAP,≤ 0.25
5,STPG,≤ 0.25
6,RDRC,≤ 0.25
7,QFYM,≤ 0.25
8,ASVC,5.25
9,LETY,≤ 0.25
10,TAVY,0.402
11,IAHE,≤ 0.25
12,SITR,11.4
13,KFWT,≤ 0.25
14,NCGF,≤ 0.25
15,VCNK,≤ 0.25
16,WFWS,≤ 0.25
17,YLKG,≤ 0.25
18,HSFI,≤ 0.25
19,SNNF,6.15
20,EALQ,≤ 0.25
21,LTHI,≤ 0.25
22,NEGW,≤ 0.25
23,HVYS,≤ 0.25
24,IGFV,≤ 0.25
25,SAAP,≤ 0.25
26,VYYW,≤ 0.25

row,Variant,enrichment ratio
1,GQFR,≤ 0.25
2,WLQL,≤ 0.25
3,EFVD,≤ 0.25
4,NTNG,≤ 0.25
5,DRVS,≤ 0.25
6,RHPK,≤ 0.25
7,YPKD,≤ 0.25
8,WTKI,≤ 0.25
9,WAIP,≤ 0.25
10,IFWN,≤ 0.25
11,WHQA,≤ 0.25
12,WVVH,≤ 0.25
13,ISFI,≤ 0.25
14,QVYR,≤ 0.25
15,YDCS,≤ 0.25
16,KTSQ,≤ 0.25
17,IHLC,≤ 0.25
18,NCAV,≤ 0.25
19,QFDA,≤ 0.25
20,AIKL,≤ 0.25
21,KCSC,≤ 0.25
22,LEQA,≤ 0.25
23,SMPN,≤ 0.25
24,KAFE,≤ 0.25
25,ELWG,≤ 0.25
26,HEPM,≤ 0.25

row,Variant,enrichment ratio
1,NAKY,≤ 0.25
2,HSMI,17.4
3,IECI,≤ 0.25
4,NQWP,≤ 0.25
5,RIGC,≤ 0.25
6,YEQI,≤ 0.25
7,WNAA,≤ 0.25
8,NDEY,≤ 0.25
9,IWYE,≤ 0.25
10,SCDL,≤ 0.25
11,SQRT,≤ 0.25
12,PPSP,≤ 0.25
13,PTHE,≤ 0.25
14,SNDV,≤ 0.25
15,HSYT,≤ 0.25
16,KMTA,0.275
17,YRHN,≤ 0.25
18,IHND,≤ 0.25
19,GDYN,≤ 0.25
20,NKTA,≤ 0.25
21,YGHA,≤ 0.25
22,YGNN,≤ 0.25
23,EKMD,≤ 0.25
24,VTAI,1.25
25,SVLR,2.79
26,QHCM,≤ 0.25

row,Variant,enrichment ratio
1,TGDS,≤ 0.25
2,HGMR,≤ 0.25
3,SPVQ,≤ 0.25
4,IMHN,≤ 0.25
5,KCNP,≤ 0.25
6,EAHR,≤ 0.25
7,NSQI,≤ 0.25
8,FVKT,≤ 0.25
9,THFP,≤ 0.25
10,NCMT,≤ 0.25
11,FFII,≤ 0.25
12,IYVG,≤ 0.25
13,SRNP,≤ 0.25
14,QNKY,≤ 0.25
15,EQIM,≤ 0.25
16,NIWE,≤ 0.25
17,GPKS,≤ 0.25
18,SHNA,3.35
19,GVVM,4.42
20,VMPI,≤ 0.25
21,NTQI,≤ 0.25
22,AWDL,≤ 0.25
23,ENQQ,≤ 0.25
24,HVYT,≤ 0.25
25,RCPR,≤ 0.25
26,YTNH,≤ 0.25

row,Variant,enrichment ratio
1,QDTF,≤ 0.25
2,GKTH,≤ 0.25
3,SPLP,≤ 0.25
4,IPQR,≤ 0.25
5,EGHG,≤ 0.25
6,ERSM,≤ 0.25
7,ECDW,≤ 0.25
8,DYRC,≤ 0.25
9,HDPV,≤ 0.25
10,SRMN,≤ 0.25
11,NQYG,≤ 0.25
12,WGND,≤ 0.25
13,DTNY,≤ 0.25
14,RDFD,≤ 0.25
15,YREP,≤ 0.25
16,MTDH,≤ 0.25
17,YLFI,≤ 0.25
18,SSIA,10.8
19,CRSR,≤ 0.25
20,SPWS,≤ 0.25
21,YNYA,≤ 0.25
22,PLWS,0.411
23,SWCR,≤ 0.25

# Source: a collection of fitness landscapes (doi:10.1126/science.1257360)
